The values below come from PMC12820563, “FoxP3 forms a head-to-head dimer in vivo and stabilizes its multimerization on adjacent microsatellites”.

The other results are listed elsewhere or left out.

The target in this assay is T1, MBP-FoxP1dN (Mus musculus, UniProt P58462 326-579).
T1 sequence: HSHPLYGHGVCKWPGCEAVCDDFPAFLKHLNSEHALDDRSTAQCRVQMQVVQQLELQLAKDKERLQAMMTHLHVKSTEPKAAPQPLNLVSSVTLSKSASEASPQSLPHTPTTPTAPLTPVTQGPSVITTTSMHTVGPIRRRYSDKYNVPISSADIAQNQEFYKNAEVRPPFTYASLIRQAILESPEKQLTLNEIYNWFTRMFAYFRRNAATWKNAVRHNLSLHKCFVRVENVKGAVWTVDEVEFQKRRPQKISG
Nature of the assay: PD-seq (MBP pull-down with sequencing); 20 mM Tris-HCl pH 7.5, 100 mM NaCl, 1.5 mM MgCl2, 0.4 uM protein, 0.1 uM dsDNA library, 30 min, room temperature, amylose pull-down; high values mean tight binding. To be noted: protein: recombinant; tags: His6-MBP; chain copies: 2; dsDNA, one strand shown. The method in brief: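 Protein and DNA were mixed at 0.4 µM and 0.1 µM and held for 30 min at room temperature in Tris pH 7.5 buffer with NaCl and MgCl2; the protein was a His6-MBP-tagged, N-terminally truncated mouse FoxP3 or FoxP1 fragment from E. coli, and the DNA a Klenow-filled double-stranded degenerate library. Amylose resin captured the complexes, which were washed three times. Binding is read as reads-per-million enrichment of pull-down versus input after Illumina sequencing, with replicates pooled.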
Regarding “GATGATTGTTCTCCCAGCTGATGAATTTTCGTTTTCGAGTAAACAAATTTTCCTAATCTTTCTGTTCAAGCGCCATCTAC”, the binding signal was 1.22 RPM ratio (pull-down/input).

On to “GATGATTGTTCTCCCAGCTGATGAATTAGGGCGTTCGAGTAAACAAATTTTCCTAATCTTTCTGTTCAAGCGCCATCTAC”, for which the binding signal was 0.896 RPM ratio (pull-down/input). With “GATGATTGTTCTCCCAGCTGATGAATTGCTTTGATCGAGTAAACAAATTTTCCTAATCTTTCTGTTCAAGCGCCATCTAC” the figure was 1.06 RPM ratio (pull-down/input); with “GATGATTGTTCTCCCAGCTGATGAATTAGTGGGATCGAGTAAACAAATTTTCCTAATCTTTCTGTTCAAGCGCCATCTAC”, 0.946 RPM ratio (pull-down/input); with “GATGATTGTTCTCCCAGCTGATGAATTCGGGCGATCGAGTAAACAAATTTTCCTAATCTTTCTGTTCAAGCGCCATCTAC”, 0.856 RPM ratio (pull-down/input). As for “GATGATTGTTCTCCCAGCTGATGAATTATGGCGTTCGAGTAAACAAATTTTCCTAATCTTTCTGTTCAAGCGCCATCTAC”, the binding signal is 1.05 RPM ratio (pull-down/input). With “GATGATTGTTCTCCCAGCTGATGAATTATACACGTCGAGTAAACAAATTTTCCTAATCTTTCTGTTCAAGCGCCATCTAC” the figure was 1.15 RPM ratio (pull-down/input); with “GATGATTGTTCTCCCAGCTGATGAATTCCTGCGTTCGAGTAAACAAATTTTCCTAATCTTTCTGTTCAAGCGCCATCTAC”, 0.94 RPM ratio (pull-down/input).

As for “GATGATTGTTCTCCCAGCTGATGAATTCACCAAATCGAGTAAACAAATTTTCCTAATCTTTCTGTTCAAGCGCCATCTAC”, the binding signal was 1.07 RPM ratio (pull-down/input). For “GATGATTGTTCTCCCAGCTGATGAATTGAAGTCTTCGAGTAAACAAATTTTCCTAATCTTTCTGTTCAAGCGCCATCTAC”, the binding signal was 0.853 RPM ratio (pull-down/input). Take “GATGATTGTTCTCCCAGCTGATGAATTAGAGCTTTCGAGTAAACAAATTTTCCTAATCTTTCTGTTCAAGCGCCATCTAC”: the binding signal is 0.946 RPM ratio (pull-down/input).

Consider “GATGATTGTTCTCCCAGCTGATGAATTTAATTACTCGAGTAAACAAATTTTCCTAATCTTTCTGTTCAAGCGCCATCTAC”, for which the binding signal is 1.38 RPM ratio (pull-down/input). With “GATGATTGTTCTCCCAGCTGATGAATTAACCGCGTCGAGTAAACAAATTTTCCTAATCTTTCTGTTCAAGCGCCATCTAC” the figure was 0.949 RPM ratio (pull-down/input). With “GATGATTGTTCTCCCAGCTGATGAATTACAGCAGTCGAGTAAACAAATTTTCCTAATCTTTCTGTTCAAGCGCCATCTAC” the figure was 0.982 RPM ratio (pull-down/input); with “GATGATTGTTCTCCCAGCTGATGAATTCCAAAAGTCGAGTAAACAAATTTTCCTAATCTTTCTGTTCAAGCGCCATCTAC”, 0.77 RPM ratio (pull-down/input); with “GATGATTGTTCTCCCAGCTGATGAATTTTGTCTGTCGAGTAAACAAATTTTCCTAATCTTTCTGTTCAAGCGCCATCTAC”, 1.02 RPM ratio (pull-down/input). Take “GATGATTGTTCTCCCAGCTGATGAATTTGGAGTTTCGAGTAAACAAATTTTCCTAATCTTTCTGTTCAAGCGCCATCTAC”: the binding signal was 0.855 RPM ratio (pull-down/input). With “GATGATTGTTCTCCCAGCTGATGAATTGATGTATTCGAGTAAACAAATTTTCCTAATCTTTCTGTTCAAGCGCCATCTAC” the figure was 1.47 RPM ratio (pull-down/input). With “GATGATTGTTCTCCCAGCTGATGAATTAAAGAGGTCGAGTAAACAAATTTTCCTAATCTTTCTGTTCAAGCGCCATCTAC” the figure was 0.78 RPM ratio (pull-down/input); with “GATGATTGTTCTCCCAGCTGATGAATTGCGAACCTCGAGTAAACAAATTTTCCTAATCTTTCTGTTCAAGCGCCATCTAC”, 1.01 RPM ratio (pull-down/input). With “GATGATTGTTCTCCCAGCTGATGAATTACTAACGTCGAGTAAACAAATTTTCCTAATCTTTCTGTTCAAGCGCCATCTAC” the figure was 1.11 RPM ratio (pull-down/input); with “GATGATTGTTCTCCCAGCTGATGAATTGCTCTGCTCGAGTAAACAAATTTTCCTAATCTTTCTGTTCAAGCGCCATCTAC”, 0.916 RPM ratio (pull-down/input); with “GATGATTGTTCTCCCAGCTGATGAATTTGGGTTTTCGAGTAAACAAATTTTCCTAATCTTTCTGTTCAAGCGCCATCTAC”, 0.968 RPM ratio (pull-down/input). Turning to “GATGATTGTTCTCCCAGCTGATGAATTGCAACCCTCGAGTAAACAAATTTTCCTAATCTTTCTGTTCAAGCGCCATCTAC”, the binding signal was 1.32 RPM ratio (pull-down/input). With “GATGATTGTTCTCCCAGCTGATGAATTCTCAATGTCGAGTAAACAAATTTTCCTAATCTTTCTGTTCAAGCGCCATCTAC” the figure was 0.907 RPM ratio (pull-down/input); with “GATGATTGTTCTCCCAGCTGATGAATTACCAGGATCGAGTAAACAAATTTTCCTAATCTTTCTGTTCAAGCGCCATCTAC”, 0.922 RPM ratio (pull-down/input). With “GATGATTGTTCTCCCAGCTGATGAATTCATGGCATCGAGTAAACAAATTTTCCTAATCTTTCTGTTCAAGCGCCATCTAC” the figure was 1.06 RPM ratio (pull-down/input); with “GATGATTGTTCTCCCAGCTGATGAATTACATCATTCGAGTAAACAAATTTTCCTAATCTTTCTGTTCAAGCGCCATCTAC”, 1.22 RPM ratio (pull-down/input). With “GATGATTGTTCTCCCAGCTGATGAATTAGACAGCTCGAGTAAACAAATTTTCCTAATCTTTCTGTTCAAGCGCCATCTAC” the figure was 0.907 RPM ratio (pull-down/input); with “GATGATTGTTCTCCCAGCTGATGAATTGTGGCGGTCGAGTAAACAAATTTTCCTAATCTTTCTGTTCAAGCGCCATCTAC”, 1.03 RPM ratio (pull-down/input); with “GATGATTGTTCTCCCAGCTGATGAATTACCTAATTCGAGTAAACAAATTTTCCTAATCTTTCTGTTCAAGCGCCATCTAC”, 1.17 RPM ratio (pull-down/input).
